Test results as given in the RNAGym collection of RNA variant scans (doi:10.7554/elife.90254).
Read counts are not given, so values of variants with three or more changes are uncertain.

B1: LINE1-mini (parent)
chain: GGCAGAGCUCAACACAGCGUGGCAAAGUGGCUGUGGCUAGACUGCC

Variants of: B1
Test: self-cleavage, relative activity (ratio to wild type); higher = more cleavage; in vitro, sequencing; the parent is a self-cleaving ribozyme

Variant	self-cleavage
U9A A25U G35A	0.08
A25U C37U A41C	0.05
C10U A12U G21U	0.16
C8A C10G G17U C46U	0.02
U20C G30A A39C U43A C46A	0.04
A4U C8U A16G U20A G21A G27A	0.08
C3U C10U A11C A14U A16U U32G	0.03
G1U A39U C42A	0.04
G2A U9G G19A G21U	0.21
C3A C8G G30A U38G	0.02
G2A A6G G7U A41C	0.05
G21A G36C A39G	0.07
G5C A6U C15A G19A	0.02
A4U G29U U32G	0.07
U20G C23A C42G	0.04
A16C G19A G33U	0.08
G21A A24G G33U	0.05
A4U U9G C23U G40U A41C	0.09
G1C G5U C15U A26U G30C	0
A4C A6C C13A G21U G30U	0.12
G19A A24U G44A	0.44
G27A G36U A41U	0.07
C10G G29C G35U C37A U38C U43C	0
G1U A16G G21U	0.23

Variant	self-cleavage
C18U G35U C42A	0.04
U9A G27A U28A U34C U43C	0.06
C10G G27U C37G	0.02
G2A A11G G30U G35U G44A	0.01
G33U U34G C37A	0.07
G1A C3G A11G G21C U32C	0.01
G1U C15A U20C G21C	0.02
G2U U38G G40A C46U	0
A11G C15U U28G C46U	0.01
G1C C3U A16G G19C	0.03
A11C A24G C37U C45A	0.01
G5U A11G A26U G30U U32C U38A	0.01
G2A C8U G40C G44U C45A	0.26
G1C U9C C10U G36U C42G C45G	0.01
C8U U20C A26C A41C	0.05
G22U G36C A41U	0.34
G22C C37A G40A G44U	0.06
A12G C18G C31G G36U	0.03
C8A U9G A25U G36U	0.05
G2C G21A A24C G40U C45G	0.02
G1U C10G G22C C23A C31A	0
G7U C15U U20G	0.07
A4C C10G G40U	0.04
A4U C8U U34G U38G	0.05

Variant	self-cleavage
G1A G5A A24G G33C U43A	0.05
C8U G40C U43C	0.09
A11U U32C G40A	0.02
U20A G30A G35C G36A	0.09
C13A G17U G19U C42U	0.03
U9A U20G G33A C37U	0.06
A11C C18U U38G G44A	0
C13U G17U U20C G29C	0.02
A4G G21U U32A G40U U43A	0.04
U9A G19A A39G G40A	0.06
G1A G2A A25U U34A	0.16
G29U G33A U34G	0.04
G7U C18A A41U	0.18
C15A G29C U32A G44A	0.06
U20C C42G C46G	0.01
C10U G19A A24U C45A	0.05
C3G C8A C10A C13U C23G	0.03
G21A G22U G33U C46U	0.09
G2A A6C A12G U20G U38A C42A C46A	0.13
G22U A24U G36A	0.39
G22C G29U G30C	0.17
U9G G29C G30C U43A	0
C10G C18U G30C G36C	0.02
A11U C13U C18A G35U	0

Variant	self-cleavage
G7C C13G G33C	0.03
U9G A11U U20C A25G G30C	0.01
A16U G17A U28A	0.04
C13A G33C C37G	0.03
G2U G7A A12C G40A G44A	0.01
A6G C10U C18A U34A	0.03
A11U U28C G29C C46A	0.02
G2C G7U G17C A25U U34A	0.01
G1U A11G A12U U34G	0.01
U9A G30U U38G C46A	0.09
C18G A24C U28G	0.09
C13A G30C U38C G44A	0.1
G1A C10A G33U G44U	0.05
C3A A24U G29U	0.1
A12G A24C C42A	0.06
C3U C8G A24G C42U	0.19
G29C G36U C45U	0.06
C15U C18A U34A	0.03
U9C A16G G21U G30A	0.02
C3U A11G G30U C37A C42A	0.02
A16G A24G A25C C46U	0.04
C10A A12G G21C G27C C31U U43C	0.01
G2A G5U G7C C46A	0.17
A6U U20G U38A	0.2

Variant	self-cleavage
U20C G21U U38C	0.14
G29U G36U U38C G44C	0.01
C10G G27C G33U	0.02
A25C G35U A41U	0.14
G1A A12C G30U G33C A41C C42A G44A	0
G21A U28G C31G U38A	0.02
G30C G33A G44C	0.03
G17A G30U G36U C42A	0.05
G2U A24U C31U	0.02
G5C G22A C37G A41G	0.03
C15A G30U G40A	0
C3A A12G C18A G44A	0.04
C3U A26G G36U	0.03
A6C C15A A24G C37U C45U	0.26
C3G G29U U43A	0.15
C3U A11U G19A	0.03
A6U C15G A26C U32A	0.04
A6G G7U U9C C10A	0.04
C18G G27C U28C G33A	0.01
G2U G5C C10G G21A U38A G44U	0.01
C13U G19U U28A C42U	0.02
C8G G30A U32C G33U A39C U43C	0.01
G2C A16G G19C	0.04
A4U U32A C42A U43C	0.05

Variant	self-cleavage
U9C G17C G19A	0.03
C15A G27A G35U	0.02
C3A C8G G30U G36A	0.61
C3G C8A U32G	0.28
G22U U28G C37U A41G	0.01
G1C U20A A26C U38A C46A	0.03
G7U U34C C45G	0.07
A14C G17C U20A U28A C31A	0.02
G2U C8U G17A	0.07
C8A C15A U38A C42G	0.17
C3A G5A G17C G35C A41C	0.25
C13U G19C C46A	0.03
C3G A24G G29U	0.08
C3A A26G G30U G35A G36U G44A	0.07
G2A U9A G17C C46A	0.29
A16U G29U G33U	0.31
C15U C23U G29C G36U	0.04
G5U C8U G27C U34A	0.09
A12G A26G C42U	0.13
G2C G30A U32C C45U	0.03
G1C C8A A11G U20C G22A U38A	0
A4U A12G C23U G27C G36A	0.01
A4U U28G C42U	0.05
G1C C8U U32A C42U	0.02

Variant	self-cleavage
C3A G5A C8A C45U	0.34
G2U C10A G29U C46A	0.03
A4G G22U U34C C37A U43C	0.08
G19A G22C G35U	0.03
C10A A11U U20A	0.04
A4C U9G G44A	0.11
G27C G33U U38G	0.03
G19C G21C G29A G33U	0.54
C8A G19U U43A G44U C45U	0.09
C18U G33A C42U	0.03
C10G A11U G17A G36U C42A	0.01
C15U U38G A39C	0.02
A6U A14C U43C	0.03
C10A G27A U34C U43C	0.03
G2C C23A C37A	0.36
G1U G2C C46A	0.04
A4G A39G G40U C46G	0.35
G7C C10A A16U A41U	0
A6C G30U A41C	0.04
A4G G5U G22U C45A	0
G5A G19U U32G	0.03
C3U A41G C42U	0.21
A6U U20A U28G C45U	0.44
